Test systems include ACHN renal; BT-549 breast; KM12 colon; UACC-62 melanoma; NCI/ADR-RES ovarian; MCF7 breast; OVCAR-4 ovarian; SK-OV-3 ovarian; SR leukemia; T-47D breast; HCC-2998 colon; NCI-H226 lung; RPMI-8226 leukemia; LOX IMVI melanoma; SN12C renal; SK-MEL-5 melanoma; CAKI-1 renal; UO-31 renal; HCT-15 colon; MDA-MB-231 breast.
Holding throughout (assay): NCI tumour cell line growth inhibition, 48 h

Five compounds from PubChem BioAssay (NCI) can be followed below.

Structures are written as SMILES.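 Method: 48-hour compound exposure of cells in 96-well plates, five concentrations, linear interpolation of endpoints. GI50 = concentration required for 50% inhibition of growth.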 Certain results were filed several times, with different values. The other results are left out here. An entry can have further records. For some of these results: The tests behind the records often covered other concentration ranges, not given here; some values may only mark the edge of a range. For some of these results: The values listed for one entry repeat one measurement across runs, samples, wells, individuals or studies. Records carry a tag for their origin. A, B and so on number the origins entry by entry.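 The concentration for full growth arrest is given as TGI.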 A value given as a limit tells only on which side of the number the result lay.

`CCCCCCCCCCCCCC[C@@H](O)[C@H]1CC[C@H]([C@H]2CC[C@H]([C@H](O)CCCCCC[C@@H](O)CC3=C[C@H](C)OC3=O)O2)O1`: the TGI in the experiment with ACHN renal was 2.43 µM and > 25 µM.

As to `CC[C@H](C)[C@H](NC(=O)[C@H]1CCCCN1C)C(=O)N(C)[C@H](C[C@@H](OC(C)=O)c1nc(C(=O)N[C@@H](Cc2ccccc2)C[C@H](C)C(=O)O)cs1)C(C)C`, the TGI in the experiment with BT-549 breast is 36.7 nM and < 1.65 nM; with KM12 colon, 43.4 nM and > 16.5 µM; with NCI/ADR-RES ovarian, 52.3 nM and 2.51 nM; in the experiment on SK-OV-3 ovarian, 27.8 nM and > 16.5 µM. For the same compound, the GI50 with UACC-62 melanoma is 0.151 nM and 1.65 nM; in the experiment with MCF7 breast, 0.147 nM and 1.65 nM; in the experiment on OVCAR-4 ovarian, 24.5 nM and 1.65 nM.

In the case of `Cc1cc([N+](=O)[O-])c2ccccc2[n+]1[O-]`, the TGI in the experiment on SR leukemia was > 42.8 µM [sample A, mean of 2 tests] and 3.29 µM [sample B, mean of 2 tests].

Turning to `Cn1ncc(Cl)c1-c1cc(C(=O)N[C@H](CN)Cc2ccc(F)c(F)c2)oc1Cl`, the TGI with T-47D breast is 235 nM [sample A, mean of 2 tests] and 3.22 µM [sample B, mean of 2 tests]. Further, the GI50 was 28.7 nM [sample A, 1 test] and 1.51 µM [sample B, 1 test] with SR leukemia; 1.12 µM [sample A, mean of 2 tests] and 92.4 nM [sample B, mean of 2 tests] in the experiment with HCC-2998 colon.

`C/C(=C\c1csc(C)n1)[C@@H]1C[C@@H]2O[C@@H]2CCC[C@H](C)[C@H](O)[C@@H](C)C(=O)C(C)(C)[C@@H](O)CC(=O)O1`: the TGI in the experiment with NCI-H226 lung is 267 nM and > 100 µM; with RPMI-8226 leukemia, 4.64 nM and > 100 µM; with LOX IMVI melanoma it was 250 nM and > 100 µM; with SN12C renal, 954 nM and > 100 µM; in the experiment with SK-MEL-5 melanoma, 188 nM and 11.9 µM; with CAKI-1 renal, 319 nM and > 100 µM. Also, the TGI is 447 nM and 25.3 µM in the experiment with UACC-62 melanoma; 234 nM and > 100 µM in the experiment on UO-31 renal; 428 nM and 27.8 µM in the experiment with HCT-15 colon; 108 nM and > 100 µM in the experiment with MDA-MB-231 breast.
